{
  "source": "the supplement of paper PMC9446081",
  "note": "About 220 (0.56%) of roughly 39,000 compounds showed activity. Some of the results follow.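 Further: static incubation at 37 °C against the wild-type strain, values averaged over two biological replicates.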",
  "data": [
    {"tested_on": "Escherichia coli K-12 BW25113", "assay": "relative growth (OD600 normalised to plate interquartile mean) (fraction); higher = less growth inhibition, active = 0.2 or less", "conditions": "50 µM; LB; incubation time: overnight (16-24 h)", "values": [
      {"smiles": "C[C@H](CO)N1C[C@H](C)[C@H](CN(C)Cc2ccc(Cl)c(Cl)c2)Oc2c(NC(=O)c3ccc(-c4nccs4)cc3)cccc2C1=O", "relative growth": "inactive: 1"},
      {"smiles": "COc1ccc(-c2coc3c(OC)c(OC)cc(O)c3c2=O)cc1", "relative growth": "inactive: 0.991"},
      {"smiles": "Cc1ccc(S(=O)(=O)N(C)C[C@@H]2Oc3cc(C#Cc4ccncc4)ccc3S(=O)(=O)N([C@@H](C)CO)C[C@@H]2C)cc1", "relative growth": "inactive: 1.03"},
      {"smiles": "C[C@@H]1CN([C@H](C)CO)C(=O)c2cc(C#CC3(O)CCCC3)cnc2O[C@H]1CN(C)C(=O)Cc1cccnc1", "relative growth": "inactive: 0.98"},
      {"smiles": "C[C@@H]1CN([C@H](C)CO)C(=O)c2cc(NC(=O)c3ccccc3)ccc2O[C@@H](C)CCCCO[C@@H]1CN(C)C(=O)C1CCCCC1", "relative growth": "inactive: 1.01"},
      {"smiles": "CC(=O)NCC(=O)N1CCC2(CC1)C(=O)N(CC1CC1)CCN2C", "relative growth": "inactive: 1"},
      {"smiles": "C[C@@H]1CN([C@H](C)CO)C(=O)Cc2cc(NS(=O)(=O)c3ccc(F)cc3)ccc2O[C@H]1CN(C)S(=O)(=O)c1ccccc1", "relative growth": "inactive: 1.02"},
      {"smiles": "C=CCC[C@H](Cc1ccc(F)cc1)C(=O)O[C@@H](CNC(=O)[C@@H](CC=C)CC(=O)N[C@@H](CO)Cc1ccccc1)c1ccccc1", "relative growth": "inactive: 1.01"},
      {"smiles": "Cc1ccc(S(=O)(=O)N2C[C@@H](O)COC[C@H]3O[C@H](CC(=O)NCc4cccc(Cl)c4)CC[C@@H]32)cc1", "relative growth": "inactive: 0.989"},
      {"smiles": "Cc1noc(C)c1S(=O)(=O)Nc1ccc2c(c1)C(=O)N([C@H](C)CO)C[C@H](C)[C@H](CN(C)C)OCCCC[C@H](C)O2", "relative growth": "inactive: 0.845"},
      {"smiles": "C[C@@H]1CN([C@@H](C)CO)C(=O)c2cc(NC(=O)Cc3ccccc3)ccc2O[C@@H](C)CCCCO[C@@H]1CN(C)C(=O)Nc1cccc2ccccc12", "relative growth": "inactive: 1.04"},
      {"smiles": "COc1ccc(CN(C)C[C@@H]2Oc3ccc(NS(=O)(=O)c4cn(C)cn4)cc3CC(=O)N([C@H](C)CO)C[C@H]2C)cc1", "relative growth": "inactive: 1.01"},
      {"smiles": "C[C@H](CO)N1C[C@H](C)[C@H](CN(C)Cc2ccc(C(=O)O)cc2)OCCCC[C@H](C)Oc2ccc(NS(=O)(=O)c3cccs3)cc2C1=O", "relative growth": "inactive: 1.01"},
      {"smiles": "O=C(Nc1nn[nH]n1)C1CCCCC1", "relative growth": "inactive: 0.994"},
      {"smiles": "C[C@H]1CN([C@@H](C)CO)C(=O)c2ccccc2-c2ccccc2CO[C@H]1CN(C)Cc1ccc(Cl)c(Cl)c1", "relative growth": "inactive: 0.999"},
      {"smiles": "CN1CCN(C(=O)C[C@@H]2CC[C@@H]3[C@@H](COc4ccc(NC(=O)c5cscn5)cc4C(=O)N3C)O2)CC1", "relative growth": "inactive: 0.991"},
      {"smiles": "Cc1ccccc1N1C(=O)c2cc(S(N)(=O)=O)c(Cl)cc2NC1C", "note": "(centres undefined)", "relative growth": "inactive: 1.12"},
      {"smiles": "C[C@H]1CN([C@@H](C)CO)C(=O)c2cc(C3=CCCC3)cnc2O[C@@H]1CN(C)C(=O)Nc1ccc(C(F)(F)F)cc1", "relative growth": "inactive: 0.999"},
      {"smiles": "C[C@@H]1CN([C@H](C)CO)C(=O)Cc2cc(NC(=O)Cn3cnnn3)ccc2O[C@H]1CN(C)Cc1ccncc1", "relative growth": "inactive: 0.971"},
      {"smiles": "C[C@H]1CN([C@@H](C)CO)C(=O)c2cccc(NC(=O)c3cnccn3)c2O[C@H]1CN(C)S(C)(=O)=O", "relative growth": "inactive: 0.951"},
      {"smiles": "Cc1ccc(S(=O)(=O)Nc2ccc3c(c2)C(=O)N([C@@H](C)CO)C[C@@H](C)[C@@H](CN(C)S(C)(=O)=O)OCCCC[C@@H](C)O3)cc1", "relative growth": "inactive: 1.01"},
      {"smiles": "CC(C)NC(=O)N(C)C[C@@H]1Oc2ccc(NS(=O)(=O)c3ccc(Cl)cc3)cc2C(=O)N([C@H](C)CO)C[C@@H]1C", "relative growth": "inactive: 0.994"},
      {"smiles": "C[C@@H]1CN([C@H](C)CO)C(=O)Cc2cc(NC(=O)c3ccncc3)ccc2O[C@H]1CN(C)Cc1ccc(-c2ccccc2)cc1", "relative growth": "inactive: 1.04"},
      {"smiles": "C[C@H]1CCCCO[C@@H](CN(C)C(=O)CCC(F)(F)F)[C@@H](C)CN([C@@H](C)CO)C(=O)c2cc(NC(=O)c3ccccc3)ccc2O1", "relative growth": "inactive: 1.05"},
      {"smiles": "C[C@@H]1CCCCO[C@H](CN(C)Cc2ccc(C(=O)O)cc2)[C@@H](C)CN([C@H](C)CO)C(=O)c2cc(NC(=O)Nc3ccc(F)cc3)ccc2O1", "relative growth": "inactive: 1.02"},
      {"smiles": "O=C(O)CCN=C1NC(=O)CS1", "relative growth": "inactive: 0.99"},
      {"smiles": "C[C@@H]1CN([C@H](C)CO)C(=O)c2cc(NS(=O)(=O)c3ccc(Cl)cc3)ccc2O[C@@H](C)CCCCO[C@@H]1CN(C)CC1CCCCC1", "relative growth": "inactive: 1.02"},
      {"smiles": "CC(C)NC(=O)Nc1ccc2c(c1)CC(=O)N([C@@H](C)CO)C[C@@H](C)[C@@H](CN(C)C(=O)Nc1ccc3c(c1)OCO3)O2", "relative growth": "inactive: 0.993"},
      {"smiles": "C[C@@H]1CN([C@@H](C)CO)C(=O)c2cc(NC(=O)Cn3cnnn3)ccc2O[C@@H]1CN(C)Cc1ccc(-c2ccccc2)cc1", "relative growth": "inactive: 0.993"},
      {"smiles": "C[C@@H]1CN([C@@H](C)CO)C(=O)c2cccc(NC(=O)C3CC3)c2O[C@@H]1CN(C)C(=O)NC1CCCCC1", "relative growth": "inactive: 1.03"},
      {"smiles": "C[C@@H]1CN([C@H](C)CO)C(=O)c2cccc(NC(=O)c3ccc(-c4nccs4)cc3)c2O[C@H]1CN(C)Cc1ccc(C(=O)Nc2ccccc2N)cc1", "relative growth": "inactive: 1.01"},
      {"smiles": "NC[C@@H](O)C1CCCCC1", "relative growth": "inactive: 0.967"},
      {"smiles": "Cn1cnc(S(=O)(=O)N[C@@H]2C=C[C@H](CC(=O)N3CCN(c4ccccc4)CC3)O[C@@H]2CO)c1", "relative growth": "inactive: 1.02"},
      {"smiles": "C[C@H]1CN([C@@H](C)CO)C(=O)c2cc(-c3ccncc3)cnc2O[C@H]1CN(C)S(=O)(=O)c1ccc(F)cc1", "relative growth": "inactive: 1.01"},
      {"smiles": "C[C@@H]1CN([C@H](C)CO)C(=O)Cc2cc(NS(=O)(=O)c3ccc(F)cc3)ccc2O[C@@H]1CN(C)Cc1ccc(-c2ccccc2)cc1", "relative growth": "inactive: 1.07"},
      {"smiles": "CC(C)NC(=O)N(C)C[C@@H]1Oc2ccc(NS(=O)(=O)c3ccc(F)cc3)cc2CC(=O)N([C@H](C)CO)C[C@H]1C", "relative growth": "inactive: 0.996"},
      {"smiles": "CO[C@H]1CN(C)C(=O)c2cc(NS(=O)(=O)CC(F)(F)F)ccc2OC[C@@H](C)N(Cc2cccnc2)C[C@@H]1C", "relative growth": "inactive: 1.02"},
      {"smiles": "Cc1cc(-n2c(=O)[nH]c(=O)n(C)c2=O)ccc1Oc1ccc(SC(F)(F)F)cc1", "relative growth": "inactive: 1.01"},
      {"smiles": "Cc1cccc(S(=O)(=O)N2C[C@H](O)COC[C@H]3O[C@H](CC(=O)N4CCN(C)CC4)CC[C@@H]32)c1", "relative growth": "inactive: 1"}
    ]}
  ]
}
